Source: PubChem BioAssay AID1460 (National Center for Advancing Translational Sciences (NCATS), 2008)
Hit rate of the full screen: of about 270,000 compounds, about 5,800 (2.1%) were called active. This list was built around the results that the source calls inconclusive (neither active nor inactive); the mix of calls is not that of the screen. Calls follow the shape of the dose curve; as a rule, active = well fitted inhibition curve with a large enough effect; inconclusive = small, poorly fitted or top-dose-only effect; inactive = flat fitted curve, though single readings scatter. A potency beside an inconclusive call is a rough fit, not a confirmed value.

Biological target: Microtubule-associated protein tau (Homo sapiens) (UniProt P10636)
Chain of UniProt P10636 (P10636 whole entry, looked up): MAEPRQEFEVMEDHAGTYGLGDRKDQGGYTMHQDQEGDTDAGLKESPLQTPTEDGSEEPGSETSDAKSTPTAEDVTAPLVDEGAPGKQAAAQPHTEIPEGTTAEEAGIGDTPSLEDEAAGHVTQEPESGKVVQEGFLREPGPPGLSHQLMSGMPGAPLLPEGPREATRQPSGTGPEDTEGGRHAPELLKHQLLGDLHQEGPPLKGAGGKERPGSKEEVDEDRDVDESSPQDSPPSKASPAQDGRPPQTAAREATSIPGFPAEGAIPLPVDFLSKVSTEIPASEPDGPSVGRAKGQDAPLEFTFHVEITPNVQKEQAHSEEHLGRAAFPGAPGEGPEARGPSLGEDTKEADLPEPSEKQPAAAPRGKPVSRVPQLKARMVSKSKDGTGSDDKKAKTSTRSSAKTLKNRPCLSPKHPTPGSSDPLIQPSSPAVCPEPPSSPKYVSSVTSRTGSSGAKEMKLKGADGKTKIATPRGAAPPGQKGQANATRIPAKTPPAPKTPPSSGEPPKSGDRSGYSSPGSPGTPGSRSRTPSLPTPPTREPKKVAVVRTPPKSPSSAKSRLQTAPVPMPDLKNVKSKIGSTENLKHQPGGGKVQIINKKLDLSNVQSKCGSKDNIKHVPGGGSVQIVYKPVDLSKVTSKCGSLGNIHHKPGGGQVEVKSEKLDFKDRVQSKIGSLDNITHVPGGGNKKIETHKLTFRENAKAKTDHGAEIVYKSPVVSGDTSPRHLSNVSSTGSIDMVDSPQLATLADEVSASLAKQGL
Experiment: qHTS for Inhibitors of Tau Fibril Formation, Thioflavin T Binding; also: nearly all actives have a fitted effect of over 55% in size
Settings: recombinant tau K18 P301L, heparin-induced fibrillization, ThT fluorescence; series mostly up to 57.4 µM
Summary of the method: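 Fibril formation assay: tau K18 P301L at 15 uM with trace Alexa 594 label, heparin inducer 20 uM, pH 7 sodium acetate buffer, 37 C for 6 hr; endpoint ThT signal.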
% is scaled to controls: 0 for no effect and ±100 for the full control effect; potency is read from the fitted curve at half-maximal effect; tags tell the direction and shape of the fitted curve.

Row | Structure (SMILES) | Potency | activity, negative = inhibition
1 | O=C(OCC#CCSc1nc2ccccc2o1)c1ccco1 | inconclusive: 1.12 µM [inhibitor, full curve] | –
2 | O=C(Nc1ccccc1F)c1ccc(CSc2ncccn2)cc1 | inconclusive: 4.47 µM [inhibitor, partial curve] | –
3 | COc1ccc(CCN2C(=S)N(C)C(=O)C2CC(=O)Nc2ccc(OC)cc2)cc1 (centres undefined) | inactive | –
4 | Cc1c(Cl)cccc1NC(=O)C1CCN(c2ncnc3c2nc2n3CCCCC2)CC1 | inconclusive: 15.8 µM [inhibitor, partial curve] | –
5 | N=C1/C(=C\c2coc3ccccc3c2=O)C(=O)N=C2SC=CN12 | inconclusive: 22.4 µM [inhibitor, partial curve, poor fit] | –
6 | O=C1c2ccccc2C(=O)C1C1=Nc2ccccc2NC(c2ccccc2)C1 (centres undefined) | inconclusive: 3.55 µM [inhibitor, full curve, poor fit] | –
7 | COc1ccc(NC(=S)N2CCN(Cc3ccccc3)CC2)cc1 | inactive | –
8 | Cc1cc(Nc2ccccc2C(=O)O)nc2nc3ccccc3c(=O)n12 | inactive | –
9 | Cc1oc(-c2ccccc2Cl)nc1Cn1c(SCc2cccc(F)c2)nc2cccnc21 | inconclusive: 31.6 µM [inhibitor, single point] | –
10 | Oc1ccc(C2=NNC(=NCc3ccc4c(c3)OCO4)SC2)c(O)c1 | inconclusive: 12.6 µM [inhibitor, partial curve] | –
11 | O=C(COC(=O)CCCOc1ccc(Cl)cc1Cl)NCc1ccccc1 | inconclusive: 14.1 µM [inhibitor, partial curve] | –
12 | CCN(c1ccc(NC(=O)COC(=O)CCc2nc3ccccc3n2-c2ccccc2)cc1)C(C)C | inconclusive: 39.8 µM [inhibitor, single point] | –
13 | CCNC(=S)NCc1ccc2[nH]c(C)cc2c1 | inconclusive: 39.8 µM [inhibitor, single point] | –
14 | N#CC1=C(N)C2=CCCC[C@H]2[C@H](c2ccc(Br)cc2)C1(C#N)C#N | active: 14.1 µM | –
15 | Cc1nn(Cc2ccccc2)c2c1C(c1ccc(Cl)cc1)C(C#N)=C(N)O2 (centres undefined) | inconclusive: 11.2 µM [inhibitor, partial curve] | –
16 | CCn1c(=N)n(CCOc2ccc(Br)cc2)c2ccccc21 | inactive | –
17 | Cc1nc(NC(=O)c2ccc3c(c2)OCO3)ccc1Br | inconclusive: 1.12 µM [inhibitor, full curve, poor fit] | –
18 | CC(C)CNC(=O)N1[C@H](c2cccs2)[C@@H](C)C(=O)[C@@H](C)[C@@H]1c1cccs1 | inactive | –
19 | Cc1[nH]n(-c2ccc(Cl)cc2)c(=O)c1/C=N/n1c(C)nc2ccccc2c1=O | inactive | –
20 | Cc1cccc(OCC(=O)Nc2ccc(-c3nc4ccccc4o3)cc2)c1C | inconclusive: 0.158 µM [inhibitor, full curve] | –
21 | C[n+]1cc(C(=O)N2CCCCC2)ccc1/C=C/c1c[nH]c2ccccc12 | inconclusive: 15.8 µM [inhibitor, partial curve] | –
22 | CCCN1C(=O)/C(=C/c2ccc(C)s2)NC1=S | inconclusive: 20 µM [inhibitor, partial curve] | –
23 | CC1(C)CC(/C=C/c2ccccc2)=Nc2ccccc2N1 | inconclusive: 20 µM [inhibitor, partial curve] | –

Row | Structure (SMILES) | Potency | activity, negative = inhibition
24 | O=C(CCn1nnc(-c2cccs2)n1)N1CCc2ccccc2C1 | inconclusive: 39.8 µM [inhibitor, single point] | –
25 | COc1ccc(Cn2cc(C(=O)c3ccc(C)c(C)c3)c(=O)c3ccccc32)cc1 | inactive | –
26 | O=C(COc1ccccc1)N/N=C/c1ccc2c(c1)OCO2 | inconclusive: 10 µM [inhibitor, partial curve] | –
27 | CCn1c2ccccc2c2cc(NS(=O)(=O)c3ccccc3C)ccc21 | inactive | –
28 | COc1ccc(/C=C/C(=O)CC(=O)/C=C/c2cccc(O)c2OC)cc1O | active: 1.26 µM | –
29 | O=C1C2CCCN2C(c2ccc(Cl)cc2)N1c1nccs1 (centres undefined) | inconclusive: 28.2 µM [inhibitor, single point] | –
30 | COCCCNC(=O)Cn1c(=O)nc(-c2ccccc2)c2ccccc21 | inactive | –
31 | Cc1cccc(NC(=O)CCC(=O)N/N=C/c2cc([N+](=O)[O-])ccc2O)c1 | inconclusive: 12.6 µM [inhibitor, partial curve] | –
32 | COc1cc2ncc(C(=O)c3ccc(C)cc3)c(N3CCCCC3)c2cc1OC | inconclusive: 25.1 µM [inhibitor, single point] | –
33 | CC(CNC(=O)c1nnc(Cc2ccc(F)cc2)o1)c1ccccc1 (centres undefined) | inconclusive: 4.47 µM [inhibitor, partial curve] | –
34 | Cc1ccc(-n2nc3c(=O)n(CC(=O)NCCC(C)C)nc(C)c3c2C)cc1 | inactive | –
35 | Cc1ccsc1/C=C1\CCc2ccccc2C1=O | inconclusive: 4.47 µM [inhibitor, full curve] | –
36 | COc1ccc(S(=O)(=O)Nc2ccc3c(c2)OCO3)cc1 | inactive | –
37 | O=C1OCc2cc(NC(=O)C3COc4ccccc4O3)ccc21 (centres undefined) | inconclusive: 25.1 µM [inhibitor, partial curve, poor fit] | –
38 | Cc1[nH]c2ccccc2c1SCC(=O)N1CCCCC1 | inconclusive: 28.2 µM [inhibitor, single point] | –
39 | COc1ccc(C2=C(N3CCN(c4cccc(C)c4)C(C)C3)c3ccccc3C2=O)cc1 (centres undefined) | inconclusive: 8.91 µM [inhibitor, partial curve] | –
40 | CC(=O)C1=C(C)OC(N)=C(C#N)C1c1ccncc1 (centres undefined) | inconclusive: 25.1 µM [inhibitor, single point] | –
41 | COc1ccccc1CNC(=O)c1ccc(-c2ccccc2Cl)o1 | inconclusive: 12.6 µM [inhibitor, partial curve] | –
42 | Cc1ccccc1/C(N)=N/OC(=O)N1c2ccccc2Sc2ccccc21 | inconclusive: 11.2 µM [inhibitor, partial curve, poor fit] | –
43 | CCCNC(=O)OC[C@@H]1O[C@H](CCO/N=C\[C@@H](OC)[C@H](C)/C=C\CC(=O)OC)C=C[C@@H]1Oc1ccc(OC)cc1 | – | inactive: -6.73% [at 11.5 µM]
44 | O=C(Nc1ccc(Cl)cc1)N1CCCN(c2ccc(C(F)(F)F)cc2[N+](=O)[O-])CC1 | inconclusive: 25.1 µM [inhibitor, partial curve] | –
45 | C[C@@H](NC(=O)OC(C)(C)C)c1nnc(S(=O)(=O)Cc2ccccc2)o1 | inconclusive: 1.78 µM [inhibitor, partial curve] | –
46 | Cc1oc2ccc(O)c(CN3CCOCC3)c2c1C(=O)c1ccc(Cl)cc1 | inactive | –

Row | Structure (SMILES) | Potency | activity, negative = inhibition
47 | Nc1nc(=S)[nH]c2c1C1(CCCCC1)Cc1ccccc1-2 | inconclusive: 39.8 µM [inhibitor, single point] | –
48 | CCC1CCCCN1C(=O)CSc1nnc(-c2ccco2)o1 (centres undefined) | inactive | –
49 | COc1ccc(-c2ccc(SCC(=O)c3ccccc3)nn2)cc1OC | inconclusive: 25.1 µM [inhibitor, partial curve, poor fit] | –
50 | CC12CCC(C(=O)Nc3ccc(SC(F)F)cc3)(CC1=O)C2(C)C (centres undefined) | inconclusive: 44.7 µM [inhibitor, partial curve, poor fit] | –
51 | COc1ccc(NC(=O)CSc2nnc(NC(=O)NC3CCCCC3)s2)cc1OC | inconclusive: 39.8 µM [inhibitor, single point] | –
52 | O=c1[nH]c(/C(Cl)=C/c2c(F)cccc2Cl)nc2cc(Cl)ccc12 | inactive | –
53 | Cc1cccc(CNC(=O)c2ccc3nc(Cc4ccccc4)oc3c2)c1 | inactive | –
54 | CCC(=O)Nc1ccc(N2CCN(C(=O)c3cccs3)CC2)cc1 | inconclusive: 14.1 µM [inhibitor, partial curve] | –
55 | Cn1cccc1/C=N/NC(=O)CSc1nc2ccccc2n1C | inactive | –
56 | CCc1ccc(S(=O)(=O)c2cn(Cc3ccccc3F)c3cc(OC)c(OC)cc3c2=O)cc1 | inactive | –
57 | COc1ccc(C2c3ccc(O)cc3Oc3ncn4nc(-c5ccco5)nc4c32)cc1OC (centres undefined) | inconclusive: 2.51 µM [inhibitor, partial curve, poor fit] | –
58 | Cc1ccc(CNC(=O)c2c[nH]n3c(=O)c(Cc4ccc(Cl)cc4)c(C)nc23)cc1 | inconclusive: 35.5 µM [inhibitor, single point] | –
59 | N/C(=N\OC(=O)CCCOc1ccc(Cl)cc1Cl)c1ccccn1 | inconclusive: 28.2 µM [inhibitor, partial curve, poor fit] | –
60 | O=C1Nc2ccc(Br)cc2C1(O)Cc1ccccn1 (centres undefined) | inactive | –
61 | Cc1cc(Cl)cc2c1NC(=O)[C@]21[C@@H]2C(=O)N(Cc3ccccc3)C(=O)[C@@H]2[C@@H]2CCCN21 | inconclusive: 22.4 µM [inhibitor, partial curve] | –
62 | Cc1cc(N2CCN(C)CC2)nc2ccc(NC(=S)NCCCN3CCc4ccccc4C3)cc12 | inconclusive: 20 µM [inhibitor, partial curve] | –
63 | O=[N+]([O-])c1ccc(O)c(Nc2ncnc3ccc(Br)cc23)c1 | active: 15.8 µM | –
64 | CSc1nnc(NC(=O)c2cc3ccccc3oc2=O)s1 | inconclusive: 3.16 µM [inhibitor, full curve] | –
65 | O=C(O)c1ccc(N/N=C/c2ccc3ncccc3c2)cc1 | inconclusive: 2.82 µM [inhibitor, full curve] | –
66 | O=C1C(c2[nH]c3ccc(S(=O)(=O)O)cc3c2O)=Nc2ccc(S(=O)(=O)O)cc21 | active: 8.91 µM | –
67 | Cc1coc2cc3oc(=O)c(CC(=O)NCc4cccc(Cl)c4)c(C)c3cc12 | inactive | –
68 | CC/C(=N\NC(=O)c1ccc(-c2ccccc2)cc1)C12CC3CC(CC(C3)C1)C2 | inconclusive: 4.47 µM [inhibitor, full curve] | –
69 | CCC1=C(OC(=O)N(CC)CC)N2C(=O)OC(=NCCc3c[nH]c4ccccc34)[C@]2(Cc2ccccc2)[C@H]2C1=CC[C@H]1C(=O)N(CC)C(=O)[C@H]12 | inconclusive: 22.4 µM [inhibitor, single point] | –
